# Test results taken from article PMC9911399, “Two distinct binding modes provide the RNA-binding protein RbFox with extraordinary sequence specificity”.
# Positions count from the first letter of the chain named. The list shows a part of the results.
# T1: RBFOX1 RRM (Homo sapiens, UniProt Q9NWB1 109-208)
# T1 sequence: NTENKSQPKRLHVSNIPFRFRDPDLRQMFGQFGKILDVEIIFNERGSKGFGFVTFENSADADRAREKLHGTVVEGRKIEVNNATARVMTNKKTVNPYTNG
# B1: ACGUAAA (DNA:RNA)
# RNA: GGGAGACCGGAAUUCAGAUUGUCCACGUAAAUUAAAUCCCGUCGUAGCCACCA
# DNA 1: CAATCTGAATTCCGGTCTCCC
# DNA 2: TGGTGGCTACGACGGGATT
# B2: ACGCCCC (DNA:RNA)
# RNA: B1 RNA with U28C, A29C, A30C, A31C
# DNA 1: CAATCTGAATTCCGGTCTCCC
# DNA 2: TGGTGGCTACGACGGGATT
# B3: CCUUAAA (DNA:RNA)
# RNA: B1 RNA with A25C, G27U
# DNA 1: CAATCTGAATTCCGGTCTCCC
# DNA 2: TGGTGGCTACGACGGGATT
# B4: ACUGCCA (DNA:RNA)
# RNA: B1 RNA with G27U, U28G, A29C, A30C
# DNA 1: CAATCTGAATTCCGGTCTCCC
# DNA 2: TGGTGGCTACGACGGGATT
# B5: ACUACUC (DNA:RNA)
# RNA: B1 RNA with G27U, U28A, A29C, A30U, A31C
# DNA 1: CAATCTGAATTCCGGTCTCCC
# DNA 2: TGGTGGCTACGACGGGATT
# B6: UGACUUG (DNA:RNA)
# RNA: GGGAGACCGGAAUUCAGAUUGUCCUGACUUGUUAAAUCCCGUCGUAGCCACCA
# DNA 1: CAATCTGAATTCCGGTCTCCC
# DNA 2: TGGTGGCTACGACGGGATT
# B7: GCUAUAG (DNA:RNA)
# RNA: B1 RNA with A25G, G27U, U28A, A29U, A31G
# DNA 1: CAATCTGAATTCCGGTCTCCC
# DNA 2: TGGTGGCTACGACGGGATT
# B8: UCCUUGU (DNA:RNA)
# RNA: B1 RNA with A25U, G27C, A29U, A30G, A31U
# DNA 1: CAATCTGAATTCCGGTCTCCC
# DNA 2: TGGTGGCTACGACGGGATT
# B9: ACGACCG (DNA:RNA)
# RNA: B1 RNA with U28A, A29C, A30C, A31G
# DNA 1: CAATCTGAATTCCGGTCTCCC
# DNA 2: TGGTGGCTACGACGGGATT
# B10: AUAAUAU (DNA:RNA)
# RNA: B1 RNA with C26U, G27A, U28A, A29U, A31U
# DNA 1: CAATCTGAATTCCGGTCTCCC
# DNA 2: TGGTGGCTACGACGGGATT
# B11: GGGAAAC (DNA:RNA)
# RNA: B1 RNA with A25G, C26G, U28A, A31C
# DNA 1: CAATCTGAATTCCGGTCTCCC
# DNA 2: TGGTGGCTACGACGGGATT
# B12: GAGAUAU (DNA:RNA)
# RNA: B1 RNA with A25G, C26A, U28A, A29U, A31U
# DNA 1: CAATCTGAATTCCGGTCTCCC
# DNA 2: TGGTGGCTACGACGGGATT
# B13: CUCUCGG (DNA:RNA)
# RNA: B1 RNA with A25C, C26U, G27C, A29C, A30G, A31G
# DNA 1: CAATCTGAATTCCGGTCTCCC
# DNA 2: TGGTGGCTACGACGGGATT
# B14: GCAUAGC (DNA:RNA)
# RNA: B1 RNA with A25G, G27A, A30G, A31C
# DNA 1: CAATCTGAATTCCGGTCTCCC
# DNA 2: TGGTGGCTACGACGGGATT
# B15: GAGCUAG (DNA:RNA)
# RNA: B6 RNA with U25G, G26A, A27G, U30A
# DNA 1: CAATCTGAATTCCGGTCTCCC
# DNA 2: TGGTGGCTACGACGGGATT
# B16: CUUUUUG (DNA:RNA)
# RNA: B6 RNA with U25C, G26U, A27U, C28U
# DNA 1: CAATCTGAATTCCGGTCTCCC
# DNA 2: TGGTGGCTACGACGGGATT
# B17: CAUAAGA (DNA:RNA)
# RNA: B1 RNA with A25C, C26A, G27U, U28A, A30G
# DNA 1: CAATCTGAATTCCGGTCTCCC
# DNA 2: TGGTGGCTACGACGGGATT
# B18: CCUACAG (DNA:RNA)
# RNA: B1 RNA with A25C, G27U, U28A, A29C, A31G
# DNA 1: CAATCTGAATTCCGGTCTCCC
# DNA 2: TGGTGGCTACGACGGGATT
# B19: AAAUGCU (DNA:RNA)
# RNA: B1 RNA with C26A, G27A, A29G, A30C, A31U
# DNA 1: CAATCTGAATTCCGGTCTCCC
# DNA 2: TGGTGGCTACGACGGGATT
# B20: GCAGUAG (DNA:RNA)
# RNA: B6 RNA with U25G, G26C, C28G, U30A
# DNA 1: CAATCTGAATTCCGGTCTCCC
# DNA 2: TGGTGGCTACGACGGGATT
# Target: T1, RBFOX1 RRM
# Assay: EMSA; HiTS-Eq, 1 nM pool, 10 min; buffer printed only for the single-RNA assays: 10 mM Tris pH 7.5, 150 mM NaCl, 3.4 mM EDTA, 0.001% NP-40, 30 C
# Settings: tags: His6 N-terminal (pET28a); label: 5' 32P
# How it was run: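 Purified RbFox RRM, wild type or mutant, was incubated for 10 min in 50 µL with 1 nM of a 5′-radiolabelled RNA pool carrying 7 randomized nucleotides, whose flanks were annealed to DNA oligonucleotides, over a series of increasing protein concentrations. Unbound RNA was resolved on 8% native PAGE, cut out, reverse-transcribed, barcoded by PCR and sequenced on an Illumina HiSeq 2500. Relative association constants were derived from changes in read counts for each RNA species versus the control reaction and normalised to the cognate motif.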
row,Binder,binding signal
1,B1,0.000585 KA relative to UGCAUGU
2,B2,0.00646 KA relative to UGCAUGU
3,B3,0.0014 KA relative to UGCAUGU
4,B4,0.0036 KA relative to UGCAUGU
5,B5,0.00205 KA relative to UGCAUGU
6,B6,0.0454 KA relative to UGCAUGU
7,B7,0.012 KA relative to UGCAUGU
8,B8,0.0095 KA relative to UGCAUGU
9,B9,0.0087 KA relative to UGCAUGU
10,B10,0.00063 KA relative to UGCAUGU
11,B11,0.0277 KA relative to UGCAUGU
12,B12,0.00642 KA relative to UGCAUGU
13,B13,0.0101 KA relative to UGCAUGU
14,B14,0.0095 KA relative to UGCAUGU
15,B15,0.0261 KA relative to UGCAUGU
16,B16,0.0263 KA relative to UGCAUGU
17,B17,0.00403 KA relative to UGCAUGU
18,B18,0.00897 KA relative to UGCAUGU
19,B19,0.00516 KA relative to UGCAUGU
20,B20,0.00887 KA relative to UGCAUGU
